82 compounds from PubChem BioAssay AID1346428 (National Center for Advancing Translational Sciences (NCATS), 2018) can be followed below.

Values joined by “and” are separate entries in the source; they are usually repeats but may differ in a detail not shown here. Equal entries are not always repeated. Screen size: about 48,000 compounds; about 1,200 (2.5%) were called active. Roughly 2% stayed inconclusive and do not appear here.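 The calls were made as follows: active = activation of at least 60% and not above a set upper limit (about 1 call in 100 departs from these limits); inconclusive = activation of 40% to 60%, or above that upper limit; inactive = activation under 40%.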 Some of the results follow. Some compounds were tested as several samples or in several runs, with calls that do not always agree.

The test deals with Probable G-protein coupled receptor 32 (Homo sapiens) (UniProt O75388). Nature of the test: qHTS for Agonists of Human Resolvin D1 Receptor DRV1. Also: 0% is about no effect. To be noted: CHO-K1 GPR32 beta-arrestin PathHunter luminescence, 90 min; at 76.9 µM; stronger effect = higher value; zero percent set by DMSO-only wells. The procedure, abridged: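 Readings come from a cell-based beta-arrestin complementation format: CHO-K1 GPR32 stable cells (2,500/well) treated 90 min with compounds, then beta-Gal substrate added for 1 h before chemiluminescence imaging.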
Chain of UniProt O75388 (O75388 whole entry, looked up): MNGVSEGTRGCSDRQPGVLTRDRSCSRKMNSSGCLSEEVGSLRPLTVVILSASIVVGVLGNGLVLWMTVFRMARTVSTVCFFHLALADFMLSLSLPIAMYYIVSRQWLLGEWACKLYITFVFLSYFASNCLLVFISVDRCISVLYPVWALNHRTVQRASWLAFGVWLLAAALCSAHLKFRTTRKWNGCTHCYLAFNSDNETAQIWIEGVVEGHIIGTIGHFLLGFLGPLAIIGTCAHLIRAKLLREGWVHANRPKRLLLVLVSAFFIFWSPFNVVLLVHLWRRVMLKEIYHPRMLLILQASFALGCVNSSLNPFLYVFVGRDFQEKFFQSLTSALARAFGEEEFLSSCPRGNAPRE
On the technique in general: qHTS replaces the single test concentration by a dilution series.
Take `Cc1ccc(Cn2ccnc2SCC(=O)Nc2nc3ccccc3s2)cc1`: the activation is inactive: -5.26%.

As to `C#CCOc1ccc(C2CC(=O)Nc3c2c(C)nn3-c2nc(C)cc(C)n2)cc1` (configuration not stated), the activation is inactive: -3.34%.

For `Cc1cccc(-n2ncc3c(N4CCCC(C)C4)ncnc32)c1` (configuration not stated), the activation is inactive: 42.5%.

For the compound `Cc1cccc(C(=O)N2c3nc(-c4ccco4)nn3C3(CCCCC3)[C@@H]3CCCC[C@@H]32)c1`, the activation was inactive: -20.4%.

Consider `O=c1ccc(-c2ccccc2)nn1Cc1ccc(F)cc1Cl`, for which the activation is inactive: 9.21%.

Consider `O=C1c2c(O)cc(O)cc2OC(c2ccc(O)c(O)c2)C1O` (configuration not stated), for which the activation is inactive: 0.299%.

Take `O=C(Nc1ccc(-c2nc3cc(NC(=O)c4ccccc4F)ccc3o2)cc1)c1ccccc1F`: the activation was inactive: 6.49%.

On to `COc1ccccc1C(=O)N1CCCCC1CCN1CCOCC1` (configuration not stated), for which the activation is inactive: -9.4%.

As for `Cc1cccc(NC(=O)Cn2cc(C(=O)C3CCCCC3)c3ccccc32)c1C`, the activation was inactive: 7.29%.

Consider `CCCCCCCC/C=C\CCCCCCCC(=O)NCc1ccc(O)c(OC)c1`, for which the activation was active: 75.1% and inactive: -15.8%.

On to `N#Cc1ccccc1NC(=O)CSc1ncn[nH]1`, for which the activation was inactive: -2.14%.

In the case of `Cc1ccccc1CNC(=O)Cn1ccc2cc(S(=O)(=O)N3CCCCC3)ccc21`, the activation is inactive: 14.8%.

For the compound `COc1ccccc1NC(=O)c1sc2nc(C)c(C(=O)Nc3ccc(C)cc3C)c(-c3ccc(Br)cc3)c2c1N`, the activation was inactive: 7.63%.

With `Cn1c(=O)c2c(nc(Oc3ccc(F)cc3)n2Cc2ccc(F)cc2)n(C)c1=O`, the activation is inactive: -1.39%.

For `O=C(NCc1ccccc1)c1cc2sccc2n1Cc1ccc(F)cc1`, the activation is inactive: -0.474%.

Turning to `Cc1ccc(CNC(=O)C(=O)NCC(c2cccnc2)N2CCN(c3ccc(F)cc3)CC2)cc1` (configuration not stated), the activation was inactive: 1.67%.

As for `CCOc1ccc(C(=O)c2cn(CC(=O)Nc3ccc4c(c3)OCCO4)c3ccc(OC)cc3c2=O)cc1`, the activation is inactive: 3.96%.

For `CCCc1nn2c(=O)cc(COC(=O)c3cccs3)nc2s1`, the activation is inactive: 16.4%.

For the compound `Cc1ccc(C)c(NC(=O)c2nc(S(C)(=O)=O)ncc2N(Cc2ccc(C(C)(C)C)cc2)Cc2ccco2)c1`, the activation is inactive: -12.4%.

As for `CN1C(=O)Cc2cc(S(=O)(=O)N3CCN(c4cccc(C(F)(F)F)c4)CC3)ccc21`, the activation was inactive: -3.7%.

As to `Cc1cccc(C(=O)Nc2ccc(C(=O)OCc3cc(=O)n4c5c(sc4n3)CCCC5)cc2)c1`, the activation is inactive: -7.31%.

For the compound `CCOc1ccc(C(=O)CSc2nc3cc(C(=O)NC4CCCC4)ccc3c(=O)n2CC2CCCO2)cc1` (configuration not stated), the activation was inactive: -13%.

On to `CC(=O)c1ccc(NC(=O)c2ccc3c(c2)nnn3C2CCCC2)cc1`, for which the activation is inactive: 0.239%.

`CCOC(=O)N1CCC(NC(=O)c2ccc3c(c2)N(Cc2cc(C)ccc2C)C(=O)c2ccccc2S3(=O)=O)CC1`: the activation was inactive: -26.2%.

As for `CCOc1ccc(CCn2c3c(c(=O)[nH]c2=O)C(NC(=O)c2ccccc2)(C(F)(F)F)C(=O)N3)cc1OCC` (configuration not stated), the activation is inactive: 27.4%.

As to `CCCCCn1c(=O)[nH]c2cc(C(=O)N3CCN(c4cc(Cl)ccc4C)CC3)ccc2c1=O`, the activation was inactive: 3.58%.

With `COc1ccc(NC(=O)CSc2nc3ccccc3nc2Cc2ccc(C)cc2)cc1Cl`, the activation is inactive: -14.2%.

On to `Cc1ccccc1C(=O)OCc1cc(=O)n2nc(C3CC3)sc2n1`, for which the activation was inactive: 9.09%.

Regarding `Cc1ccc(C(=O)OCc2cc(=O)n3nc(-c4cccs4)sc3n2)cc1`, the activation was inactive: -10.5%.

For the compound `CCOC(=O)c1c(S(=O)(=O)NCC(=O)Nc2cc(C)ccc2OC)c(C)n(C)c1C`, the activation is inactive: -10.5%.

On to `CCN(CC)c1ccc2cc(-c3nc(-c4ccc(Cl)cc4Cl)cs3)c(=O)oc2c1`, for which the activation is inactive: 14.7%.

Take `O=C(Cn1cc(SCc2ccccc2F)c2ccccc21)N1CCCCCC1`: the activation is inactive: -21.6%.

Turning to `COc1ccccc1NC(=O)Cn1c(=O)n(Cc2cccs2)c(=O)c2cccnc21`, the activation is inactive: 1.33%.

In the case of `Cc1nc(-c2ccccc2)sc1-c1ccc(SCC(=O)NCc2ccccc2)nn1`, the activation is inactive: 16.5%.

Regarding `N=c1ccn2c(n1)O[C@H]1[C@H](O)[C@@H](CO)O[C@H]12`, the activation is inactive: -0.0273%.

Regarding `CCOC(=O)c1ccc(Nc2nc3nonc3nc2Nc2cccc(C)c2C)cc1`, the activation is inactive: -7.49%.

Consider `Cc1c(Cl)cccc1NC(=O)C1CCCN(c2nnc(-n3c(C)ccc3C)s2)C1` (configuration not stated), for which the activation was inactive: 3.69%.

As to `O=C(NCc1ccc2c(c1)OCO2)c1ccc2c(c1)N(Cc1cccc(Cl)c1)C(=O)c1ccccc1S2=O` (configuration not stated), the activation is inactive: -14.2%.

For the compound `COc1ccc(CNC(=O)Cn2c(=O)nc(-c3ccccc3F)c3cc(Cl)ccc32)cc1`, the activation was inactive: -0.374%.

In the case of `CCN(CC)C(=O)CSc1nc2cc3c(cc2c(=O)n1CCCCCC(=O)NCc1ccc(OC)cc1)OCO3`, the activation is inactive: -13.5%.

For `Cc1ccc(CSC2=Nc3ccccc3C3=NC(CCC(=O)NCc4cccs4)C(=O)N23)cc1` (configuration not stated), the activation was inactive: -18.4%.

As to `O=C(NCC(c1ccc2c(c1)OCO2)N1CCN(c2ccccc2)CC1)C(=O)Nc1cccc(F)c1` (configuration not stated), the activation is inactive: -6.22%.

Regarding `CCN(CCCNC(=O)c1ccc(Sc2ccc(F)cc2)c(NC(C)=O)c1)c1ccccc1`, the activation is inactive: -16.8%.

In the case of `Cc1ccc(F)cc1NC(=O)Cn1c(=O)nc(-c2ccccc2F)c2cc(Cl)ccc21`, the activation is inactive: -8.79%.

As for `Cc1ccc(-c2nc3c(C)cccn3c2Nc2ccccc2C)s1`, the activation was inactive: -21.3%.

`COc1ccc(C2=C(C)C(=O)N(Cc3ccc(C(=O)Nc4cccc(F)c4)cc3)S2(=O)=O)cc1`: the activation was inactive: -3.39%.

With `CC1CCCN(c2nc3c(S(=O)(=O)c4ccc(C(C)C)cc4)nnn3c3ccsc23)C1` (configuration not stated), the activation is inactive: -9.67%.

With `CCC1CCCCN1CCCNC(=O)c1c(O)nc2ccccn2c1=O` (configuration not stated), the activation was inactive: -1.42%.

Turning to `COc1ccc(-c2csc(-c3nc(-c4ccc(Br)s4)cs3)n2)cc1F`, the activation is inactive: -2.21%.

`COc1ccccc1C(=O)NCc1nnnn1-c1ccc(C)c(C)c1`: the activation is inactive: -2.37%.

Turning to `CCCC1=Nc2cc(C(=O)NCCc3ccc(OCC)cc3)ccc2Sc2ccccc21`, the activation is inactive: -21.6%.

With `COc1cc2c(-c3ccccc3O)nc3c(c(C)nn3-c3ccccc3)c2cc1OC`, the activation is inactive: -22.7%.

With `COc1cccc(CN2C(=O)c3ccccc3Sc3ccc(C(=O)NCCc4ccc(C)cc4)cc32)c1`, the activation was inactive: -12.4%.

As to `CCC(=O)N1CCc2cc(S(=O)(=O)N(C)c3cccc(C)c3)ccc21`, the activation is active: 63.2%.

With `O=C(/C=C/c1ccccc1)N1CCN(Cc2cc(=O)n3nc(-c4ccccc4)sc3n2)CC1`, the activation was inactive: 0.561%.

Regarding `COC(=O)CSc1nnc2n(-c3ccccc3)c(=O)c3c4c(sc3n12)COC(C(C)C)C4` (configuration not stated), the activation is active: 64.6%.

As to `CS(=O)(=O)c1ccc([C@@H](O)[C@@H](CO)NC(=O)C(Cl)Cl)cc1`, the activation was inactive: 23.5%.

Take `CCCOc1ccc(C2C(=O)N(C3CCCCCC3)CC(=O)N2CCCOCC)cc1OC` (configuration not stated): the activation is inactive: -14.7%.

Consider `Cc1ccccc1NC(=O)c1sc2nc(N3CCOCC3)c3c(c2c1N)CC(C)(C)OC3`, for which the activation was inactive: -18.1%.

With `CCN(c1cc(C)cc(C)c1)S(=O)(=O)c1nnc(NC(=O)c2cccc(F)c2)s1`, the activation is inactive: 22.1%.

For `CCOc1ccccc1N1CC(c2nc3ccccc3n2CCOc2ccc(C(C)(C)C)cc2)CC1=O` (configuration not stated), the activation is active: 72.9%.

On to `CCOc1ccccc1N(C)C(=O)Cn1nc(Cc2cccnc2)c2ccccc2c1=O`, for which the activation is inactive: -89%.

As for `COc1cc(NC(=O)N2CCN(c3cc(-c4noc(C)n4)ccc3C)CC2)cc(OC)c1OC`, the activation is inactive: 9.31%.

As for `CC(C)Cc1ccc([C@H](C)C(=O)O)cc1`, the activation was inactive: -2.99%.

Take `COc1ccc2c(c1)c1c(c(=O)n(CCc3ccccc3)c(=O)n1Cc1ccc(Cl)cc1)n2C`: the activation is inactive: 5.25%.

As to `Cc1ccc(NC(=O)/C(C#N)=C\c2ccc(Cl)cc2Cl)cc1C`, the activation is inactive: 33.8%.

As for `Nc1c(-c2nc(-c3ccccc3)no2)nnn1CC(=O)Nc1ccccc1`, the activation is inactive: -19.5%.

As for `COc1ccccc1CNC(=O)Cn1ncc2c(C)n(Cc3ccccc3Cl)c(C)c2c1=O`, the activation is inactive: -19.7%.

Consider `Cc1ccc(-c2ccc(CCC(=O)O)n2-c2ccc(C(C)C)cc2)cc1`, for which the activation was inactive: 3.54%.

As to `CCN(c1ccc(C)cc1)S(=O)(=O)c1nnc(NC(=O)c2cccs2)s1`, the activation was active: 84.6%.

`CC(C)c1ccccc1NC(=O)CSc1nnc(COc2ccccc2Cl)o1`: the activation was active: 86.5%.

Regarding `CCOc1ccccc1NC(=O)N1CCN(S(=O)(=O)c2ccc3c(ccn3C)c2)CC1`, the activation is inactive: -22.9%.

On to `CCN(CC)CCNC(=O)c1cc2c(=O)[nH]c3ccc(C)cc3c2s1`, for which the activation was inactive: 6.67%.

Turning to `Cc1coc2cc3oc(=O)c(CC(=O)NCc4ccccc4)c(C)c3cc12`, the activation was inactive: -4.52%.

For the compound `C[C@]12C=CC(=O)C=C1CC[C@@H]1[C@@H]2[C@@H](O)C[C@@]2(C)[C@H]1CC[C@]2(O)C(=O)CO`, the activation is inactive: 9.77%.

Take `CCOc1ccccc1NC(=O)c1cc(S(=O)(=O)NC2CCCC2)ccc1F`: the activation was inactive: -29.7%.

As for `COc1cccc(-c2cnc(NCc3ccccc3Cl)n2C)c1`, the activation is inactive: -11.2%.

`CC(=O)N1CCCc2cc(S(=O)(=O)N3CCCC(C(=O)Nc4ccc(C)c(C)c4)C3)ccc21` (configuration not stated): the activation is inactive: -8.74%.

Take `CC(C)(C)c1ccc(S(=O)(=O)Nc2ccc(O)c(Sc3nc4ccccc4s3)c2)cc1`: the activation is inactive: 2.42%.

With `Cc1ccc(C)c(N2CCN(C(=O)c3cc4c(=O)n(Cc5cccs5)ccc4nc3C)CC2)c1`, the activation was inactive: -34.8%.

On to `Cc1ccc(S(=O)(=O)Nc2cc3c(cc2Cl)n(C)c(=O)c(=O)n3C)cc1`, for which the activation was inactive: 7.24%.

In the case of `CCOc1ccc2nc(N3CCC(C(=O)Nc4c(C)cccc4C)CC3)sc2c1`, the activation is inactive: -4.07%.
